Assay results taken from the supplement of paper PMC9446081.
In all, about 39,000 compounds went through this assay and about 220 (0.56%) showed activity. The list shows a part of the results.

The compounds below were run on Escherichia coli K-12 BW25113 (assay: relative growth (OD600 normalised to plate interquartile mean) (fraction); higher = less growth inhibition, active = 0.2 or less). Conditions: 50 µM; LB; incubation time: overnight (16-24 h).
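Further: static incubation at 37 °C against the wild-type strain, values averaged over two biological replicates.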

SMILES	relative growth
CS(C)(=O)=O	inactive: 1.05
C[C@@H]1CN([C@@H](C)CO)C(=O)Cc2cc(NS(=O)(=O)c3ccccc3)ccc2O[C@@H]1CN(C)S(=O)(=O)c1ccccc1	inactive: 0.995
Cc1noc(C)c1NC(=O)N(C)C[C@@H]1OCCCC[C@H](C)Oc2ccc(NC(=O)Cc3ccccc3)cc2C(=O)N([C@H](C)CO)C[C@@H]1C	inactive: 1.01
C[C@H]1CN([C@@H](C)CO)C(=O)Cc2cc(NC(=O)CCN3CCOCC3)ccc2O[C@@H]1CN(C)Cc1ccc2c(c1)OCO2	inactive: 0.999
C[C@@H]1CN([C@H](C)CO)S(=O)(=O)c2ccc(C#CC(C)(C)O)cc2O[C@@H]1CN(C)Cc1ccc(F)cc1	inactive: 0.944
Cc1ccc(S(=O)(=O)Nc2ccc3c(c2)CC(=O)N([C@@H](C)CO)C[C@H](C)[C@@H](CN(C)Cc2ccc(C(F)(F)F)cc2)O3)cc1	inactive: 0.939
C[C@@H]1CCCCO[C@@H](CN(C)Cc2ccc(C(=O)O)cc2)[C@@H](C)CN([C@@H](C)CO)C(=O)c2cc(NS(=O)(=O)c3ccc(Cl)cc3)ccc2O1	inactive: 1.03
CCCCNc1ccc(C(=O)OCCN(C)C)cc1.Cl	inactive: 0.883
C[C@H](CO)N1C[C@H](C)[C@@H](CN(C)Cc2ccc3c(c2)OCO3)Oc2ccc(NC(=O)CCN3CCOCC3)cc2CC1=O	inactive: 0.996
COc1cccc(NC(=O)N(C)C[C@H]2Oc3ncc(C#Cc4cccnc4)cc3C(=O)N([C@@H](C)CO)C[C@@H]2C)c1	inactive: 0.989
CO[C@@H]1CN(C)C(=O)c2cc(NC(=O)c3cnccn3)ccc2OC[C@@H](C)N(CCC(F)(F)F)C[C@H]1C	inactive: 0.993
CC(C)NC(=O)Nc1ccc2c(c1)C(=O)N([C@H](C)CO)C[C@@H](C)[C@@H](CN(C)Cc1ccc(-c3ccccc3)cc1)O2	inactive: 0.946
CC(C)NC(=O)Nc1ccc2c(c1)C(=O)N([C@H](C)CO)C[C@@H](C)[C@H](CN(C)CC1CCCCC1)OCCCC[C@H](C)O2	inactive: 0.972
CN1CCN(C(=O)C[C@H]2C=C[C@@H](NS(=O)(=O)c3cccc(F)c3)[C@H](CO)O2)CC1	inactive: 0.999
CN(C)C(=O)CSc1nnc(N)s1	inactive: 0.921
CN1CC[C@@]2(C(=O)N3CCOCC3)CCN(S(C)(=O)=O)CC[C@H]12	inactive: 1.01
C[C@@H]1CCCCO[C@H](CN(C)C(=O)NC2CCCCC2)[C@@H](C)CN([C@@H](C)CO)C(=O)c2cc(NC(=O)Cc3ccccc3)ccc2O1	inactive: 1.02
O=C(NCCCN1CCOCC1)[C@H]1N[C@H]2c3ccc(C4=CCCCC4)c(=O)n3C[C@H]2[C@@H]1CO	inactive: 0.98
CN(C)C(=O)CN1CCC2(CC1)CN(CCn1cccn1)C(=O)CO2	inactive: 0.959
COc1ccc(NC(=O)Nc2ccc3c(c2)CC(=O)N([C@H](C)CO)C[C@@H](C)[C@@H](CN(C)C(=O)Nc2cccc4ccccc24)O3)cc1	inactive: 1.02

SMILES	relative growth
C[C@@H]1CCCCO[C@H](CN(C)S(=O)(=O)c2ccc(F)cc2)[C@@H](C)CN([C@H](C)CO)C(=O)c2cc(NC(=O)Nc3ccc4c(c3)OCO4)ccc2O1	inactive: 0.977
COC(=O)CCCCCCC(=O)NN	inactive: 0.995
C[C@H](CO)N1C[C@H](C)[C@H](CN(C)Cc2ccc(Oc3ccccc3)cc2)Oc2ccc(NC(=O)C3CC3)cc2CC1=O	inactive: 0.983
CC(C)NC(=O)N(C)C[C@@H]1Oc2ccc(NC(=O)NC3CCCCC3)cc2CC(=O)N([C@H](C)CO)C[C@@H]1C	inactive: 1
O=c1cc[nH]c(C(F)(F)F)n1	inactive: 1
C[C@@H]1CCCCO[C@H](CN(C)C(=O)Nc2ccc(C(F)(F)F)cc2)[C@H](C)CN([C@@H](C)CO)C(=O)c2cc(NC(=O)Nc3ccc(C(F)(F)F)cc3)ccc2O1	inactive: 0.993
Cc1ccc(S(=O)(=O)N(C)C[C@H]2Oc3c(NS(C)(=O)=O)cccc3C(=O)N([C@H](C)CO)C[C@H]2C)cc1	inactive: 0.995
C[C@@H]1CN([C@@H](C)CO)C(=O)c2cc(NC(=O)Nc3cccc4ccccc34)ccc2O[C@@H](C)CCCCO[C@H]1CN(C)C(=O)Nc1ccccc1	inactive: 1
Cc1noc(C)c1S(=O)(=O)Nc1ccc2c(c1)C(=O)N([C@@H](C)CO)C[C@H](C)[C@@H](CN(C)S(=O)(=O)c1ccc(Cl)cc1)O2	inactive: 0.982
Cc1ccc(S(=O)(=O)N(C)C[C@@H]2Oc3ccc(NC(=O)Nc4ccc(C(F)(F)F)cc4)cc3C(=O)N([C@H](C)CO)C[C@@H]2C)cc1	inactive: 1.03
C[C@H](CO)N1C[C@H](C)[C@H](CN(C)Cc2ccc(C(=O)O)cc2)OCCCC[C@H](C)Oc2ccc(NC(=O)Nc3ccccc3)cc2C1=O	inactive: 1.03
C[C@H]1CCCCO[C@H](CN(C)C(=O)NC2CCCCC2)[C@@H](C)CN([C@@H](C)CO)C(=O)c2cc(NS(=O)(=O)c3cccs3)ccc2O1	inactive: 0.996
C[C@@H]1CN([C@@H](C)CO)C(=O)c2cccc(NS(C)(=O)=O)c2O[C@@H]1CN(C)Cc1ccc(C(=O)O)cc1	inactive: 0.997
Cc1cc(C(=O)Nc2cccc3c2O[C@@H](CN(C)C(=O)Nc2ccc4c(c2)OCO4)[C@H](C)CN([C@H](C)CO)C3=O)n(C)n1	inactive: 0.991
C[C@@H]1CN([C@H](C)CO)C(=O)c2cc(NC(=O)Cc3ccccc3)ccc2O[C@@H](C)CCCCO[C@H]1CN(C)C(=O)Nc1cccc2ccccc12	inactive: 1.01
C[C@@H]1CN([C@@H](C)CO)C(=O)c2cc(NS(=O)(=O)c3cn(C)cn3)ccc2O[C@@H]1CN(C)Cc1ccc(C(=O)O)cc1	inactive: 0.977
C[C@H](CO)N1C[C@H](C)[C@H](CN(C)C(=O)Nc2ccc3c(c2)OCO3)Oc2ccc(NC(=O)CCCN(C)C)cc2C1=O	inactive: 1.03
COc1ccc(S(=O)(=O)N(C)C[C@H]2Oc3ccc(NC(=O)C4CC4)cc3C(=O)N([C@H](C)CO)C[C@H]2C)cc1	inactive: 0.999
Cc1noc(C)c1NC(=O)Nc1ccc2c(c1)C(=O)N([C@@H](C)CO)C[C@H](C)[C@H](CN(C)Cc1ccc(C(=O)O)cc1)OCCCC[C@H](C)O2	inactive: 1.01
COc1ccc(NC(=O)N(C)C[C@@H]2OCCCC[C@@H](C)Oc3ccc(NS(=O)(=O)c4ccc(C)cc4)cc3C(=O)N([C@H](C)CO)C[C@H]2C)cc1	inactive: 1.01

SMILES	relative growth
O=C(C[C@@H]1C=C[C@@H](NC(=O)Cc2ccccn2)[C@H](CO)O1)NCCCN1CCOCC1	inactive: 0.906
C[C@@H]1CCCCO[C@H](CN(C)C(=O)CCC(F)(F)F)[C@H](C)CN([C@@H](C)CO)C(=O)c2cc(NS(=O)(=O)c3ccccc3)ccc2O1	inactive: 0.994
CC(C)NC(=O)N(C)C[C@H]1Oc2c(NS(=O)(=O)c3ccccc3)cccc2C(=O)N([C@H](C)CO)C[C@H]1C	inactive: 0.94
CN(C)C(=O)c1cccc(-c2cccc(-c3nc(C(=O)N4CCCCC4)cc4c3[C@@H](CCO)N([S@](=O)C(C)(C)C)C4)c2)c1	inactive: 1.03
CO[C@H]1CN(C)C(=O)c2ccc(NC(=O)CC(F)(F)F)cc2OC[C@H](C)N(C(=O)C2CCOCC2)C[C@H]1C	inactive: 0.992
C[C@@H]1CCCCO[C@@H](CN(C)S(=O)(=O)c2ccc(F)cc2)[C@H](C)CN([C@@H](C)CO)C(=O)c2cc(NC(=O)Nc3ccc(F)cc3)ccc2O1	inactive: 1.04
O=C(NO)c1ccc(C(=O)N/N=C/[C@H](O)[C@@H](O)[C@H](O[C@@H]2O[C@H](CO)[C@H](O)[C@H](O)[C@H]2O)[C@H](O)CO)cc1	inactive: 0.996
C[C@@H]1CN([C@H](C)CO)C(=O)c2cccc(NC(=O)c3cnccn3)c2O[C@H]1CN(C)S(C)(=O)=O	inactive: 0.968
COCCNC(=O)C[C@H]1CC[C@H](NS(=O)(=O)c2ccc(C)cc2)[C@@H](CO)O1	inactive: 1.03
C[C@@H]1CN([C@H](C)CO)C(=O)c2cc(NS(=O)(=O)c3ccc(Cl)cc3)ccc2O[C@@H](C)CCCCO[C@@H]1CN(C)Cc1ccc2c(c1)OCO2	inactive: 0.958
O=C(CN1CCS(=O)(=O)CC1)NS(=O)(=O)c1ccccc1	inactive: 1.02
C[C@@H]1CN([C@@H](C)CO)C(=O)Cc2cc(NC(=O)c3ccncc3)ccc2O[C@H]1CN(C)C(=O)NC1CCCCC1	inactive: 1.01
C[C@H]1CN([C@@H](C)CO)C(=O)c2cc(C#CCN(C)C)cnc2O[C@H]1CN(C)C(=O)c1cnccn1	inactive: 1
Cc1noc(C)c1S(=O)(=O)N(C)C[C@H]1OCc2cn(nn2)CCCC(=O)N([C@H](C)CO)C[C@H]1C	inactive: 1
CC(C)NC(=O)Nc1ccc2c(c1)C(=O)N(C)[C@@H]1CC[C@@H](CC(=O)NCc3ccc(F)cc3)O[C@@H]1CO2	inactive: 0.981
O=C(C[C@@H]1CC=CCC[C@@H](Cc2ccc(F)cc2)C(=O)OC[C@@H](Cc2c[nH]c3ccccc23)NC1=O)N[C@H](CO)Cc1ccccc1	inactive: 1.04
COc1ccc(CN(C)C[C@H]2Oc3ccc(NC(=O)C4CC4)cc3CC(=O)N([C@@H](C)CO)C[C@H]2C)cc1	inactive: 1
CN1CCN(C(=O)C[C@H]2C=C[C@@H](NC(=O)Cc3ccccn3)[C@@H](CO)O2)CC1	inactive: 0.986
Cc1noc(C)c1S(=O)(=O)Nc1ccc2c(c1)CC(=O)N([C@H](C)CO)C[C@H](C)[C@@H](CN(C)S(C)(=O)=O)O2	inactive: 1
